Source: the supplement of paper PMC3724861
This is one part of the list.

Tested on: T1, Caupolican (Caup) homeodomain DNA-binding domain
T1 sequence: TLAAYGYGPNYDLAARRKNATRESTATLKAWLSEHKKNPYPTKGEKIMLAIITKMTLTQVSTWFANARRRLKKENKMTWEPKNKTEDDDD
Experiment: PBM E-score (8-mer, recovered from the published 9-mer minima) (E-score (dimensionless, -0.5 to 0.5)); Drosophila protein; higher = stronger relative binding preference, active = 0.31 or more
Outline: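 An enrichment score, with higher meaning stronger, expresses relative binding preference for each short DNA word. The protein used was Caup's homeodomain DNA-binding domain (residues 214-303), produced by in vitro transcription and translation and tested at 100 nM on custom-designed protein binding microarrays. The 8-mer values were recovered from published 9-mer scores, each equal to the lower of its two constituent 8-mer scores.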

Sequence | PBM E-score
ATTCTTGG | inactive: -0.0305
GGACTTGA | inactive: -0.0246
CGGACGAA | inactive: -0.034
ACGGGCCC | inactive: -0.295
CACGCAGG | inactive: -0.0018
AAGACATC | inactive: 0.159
CGACAGCC | inactive: 0.0551
GTTAATGA | inactive: 0.153
ATCGGCAT | inactive: -0.0158
CACTCTTC | inactive: 0.0141
CCATAGCC | inactive: -0.129
CAGCCCCG | inactive: -0.153
CCGGCCGA | inactive: -0.281
TAGCGTCA | ≥ 0.0181
CATGTTAC | active: 0.42
GTAGCAAA | inactive: 0.0804
CAGTTGCA | inactive: 0.0245
AAGCTAGA | inactive: -0.0459
CGCACCTC | inactive: -0.169
GGAAGATA | inactive: 0.0393
ACCCTCAC | inactive: -0.101
AAACCAGG | inactive: 0.0544
GATTTCCA | inactive: -0.0029
ATAGCTGA | inactive: 0.00141
GAGTGGAC | inactive: -0.0327

Sequence | PBM E-score
GCGATGAC | inactive: 0.0191
CCGTGATA | inactive: -0.0342
AAAATGTG | inactive: 0.0604
TCACCCCA | inactive: -0.00423
AGTATGAC | inactive: 0.112
AATATCCA | inactive: 0.092
CACCCCAG | inactive: -0.155
CCGTCAAC | inactive: -0.0657
AATCCACA | inactive: 0.0486
AGGTTGGG | inactive: -0.0501
AACCCACG | inactive: -0.0225
GTCGTGTA | active: 0.386
ATATAGAT | inactive: 0.143
AAGGCACG | inactive: -0.0938
AAGTAAGA | inactive: -0.0164
GGGGGATA | inactive: -0.172
GCGCTACA | inactive: 0.073
AAATTCCC | inactive: -0.0534
AATGGCGT | inactive: -0.0327
AAATGTCC | inactive: 0.126
GCTAACGA | inactive: -0.0255
CATAAATG | inactive: 0.111
AACTTACA | active: ≥ 0.344
CATCTTTC | inactive: 0.113
ACACCCAT | inactive: 0.115

Sequence | PBM E-score
GGCCAGGA | inactive: -0.22
CGTGTCCC | inactive: 0.149
GACAGGAC | inactive: 0.0631
ACTCATCG | inactive: 0.0315
ACTCTGAC | inactive: 0.0493
GGCCTAGA | inactive: -0.155
AGGTAGTC | inactive: -0.00078
AGCCAGAC | inactive: -0.0522
GCATTGAA | inactive: -0.0209
GTAGCGAC | inactive: -0.0304
CGTAAAAC | inactive: -0.0282
GTAGCCTA | inactive: 0.0282
CGACATTA | inactive: 0.202
CCCCCAGG | inactive: -0.299
GTGAAACA | inactive: 0.154
GGTCCATA | inactive: -0.0606
ATCCTGGA | inactive: 0.0324
ATGATTTC | inactive: 0.102
AGGATTAA | inactive: 0.0606
ATGGTCAG | inactive: 0.0177
TATGAAAA | inactive: 0.106
GAACTGGA | inactive: -0.0731
CGCGTGAA | inactive: -0.0423
GGAGCTAA | inactive: -0.0711
AACATGGT | active: 0.37

Sequence | PBM E-score
TGAGCTAA | inactive: -0.023
AGAGACAA | inactive: 0.072
GATAGGCA | inactive: -0.0178
CAAACTCC | inactive: 0.0408
AGACTACT | inactive: 0.102
ACAAATGA | inactive: 0.154
ATCCTAAC | inactive: 0.0821
CGAGCCGC | inactive: -0.152
AGGTAAGG | inactive: 0.00867
CATAGGGG | inactive: -0.105
GCCGACCA | inactive: -0.0914
GGACGCCA | inactive: -0.254
CAATGTCG | inactive: 0.227
AATGAGTC | ≥ 0.0883
AGCGCCTG | inactive: -0.167
GACCATTA | inactive: 0.0717
ACTTACAC | inactive: 0.245
GCGTTGCC | inactive: -0.122
CTTAGCGA | inactive: -0.0584
AAGAAGCT | ≥ -0.0362
ATGCTTAG | inactive: 0.12
AACAAGCG | inactive: 0.237
TACCGAAA | inactive: -0.0217
CCTTACAC | inactive: 0.169
TACACAGA | inactive: 0.275

Sequence | PBM E-score
AGGCGGAG | inactive: -0.179
GCGCAGCC | inactive: -0.285
AGTCGGCA | inactive: -0.0483
ATTGTTCC | inactive: 0.112
AGAGATTG | inactive: -0.00602
AGAGCTGA | inactive: -0.0558
AAGCTCGG | inactive: -0.125
ACCGCTTA | inactive: -0.00038
TAGGAAAA | inactive: 0.00072
CTCCTAAA | inactive: -0.0143
CAATATTA | inactive: 0.201
CGCCATTA | inactive: -0.0602
CTGCAAAC | inactive: 0.0559
CAGCAAGA | inactive: -0.057
AATCGCTG | inactive: -0.0321
CGAATGTA | inactive: 0.226
AATCCCCC | inactive: -0.256
GCGGCAAA | inactive: -0.123
ATGTAATC | active: 0.348
CCGTCTTA | inactive: -0.142
GACTTGAC | inactive: 0.0181
AATGAAGC | inactive: -0.0494
CCCTGTCC | inactive: -0.0132
AACCAACG | inactive: -0.0341
TATTTCGA | inactive: 0.126

Sequence | PBM E-score
GGTGGTAC | inactive: 0.00466
AGACACCG | inactive: -0.0063
ACCCATGC | inactive: 0.0153
TCATCAGA | inactive: 0.0447
AAGATCTC | inactive: -0.0207
GGGAACAC | inactive: 0.112
CGACCAAC | inactive: 0.00225
AATACTAG | inactive: 0.189
ACGGGGCC | inactive: -0.282
CTCGATCC | inactive: -0.0894
CTTTAAGC | inactive: -0.091
CTCTACCC | inactive: -0.131
GAGGAAGC | inactive: -0.229
ATGACAGC | inactive: 0.202
CTCAGCTC | inactive: -0.205
CCTCCCTA | inactive: -0.196
GATGGAGA | inactive: -0.0438
CAGATGTC | inactive: 0.253
ACTCCCGG | inactive: -0.138
CACACGTC | inactive: 0.128
AAGTCACT | ≥ 0.112
CCCCGTAC | inactive: -0.201
GGCTGCCA | inactive: -0.145
AACGGAGC | inactive: -0.15
AGATCTGG | inactive: -0.0563

Sequence | PBM E-score
AATTCCGA | ≥ 0.137
AGAGATTC | inactive: 0.0693
GGCAACAA | inactive: 0.153
TAGTTATA | inactive: 0.209
ACGGTGCG | inactive: -0.0331
GTCAATTA | inactive: 0.0898
ACACGAAA | inactive: 0.208
CGCGATCC | inactive: -0.0878
GACAATGC | inactive: 0.133
GAGATCCA | inactive: -0.0672
CTTACAAA | inactive: 0.181
ACCGCCGA | inactive: -0.0752
ACATGCCT | inactive: 0.254
TATTGTCA | inactive: 0.225
ATTCTGAG | inactive: -0.0481
ATTTCACA | ≥ 0.161
GTCACTGA | inactive: 0.0354
CATCTTCG | inactive: -0.0302
AGGACTTC | inactive: -0.0992
AAACAAGA | inactive: 0.3
AGACCACG | inactive: -0.151
GTGGAAAA | inactive: 0.0388
GTGCGAAA | inactive: 0.0321
CCAGCGTC | inactive: -0.225
CACTCATC | inactive: 0.0214

Sequence | PBM E-score
CGCGCCAC | inactive: -0.154
AGACCCAA | inactive: -0.131
CAAAACCC | inactive: -0.0398
AGTAGCAA | inactive: 0.0952
GGTGAGTA | inactive: 0.0634
AGCAGCGC | inactive: -0.15
ACCCCGAG | ≥ -0.102
CGGGAACG | inactive: -0.259
AGGCCTGC | inactive: -0.156
AGTCCTCG | inactive: -0.00545
GGAGCGGA | inactive: -0.197
AAGTGTGG | inactive: -0.0403
CATCGACA | inactive: 0.112
CATGAATA | inactive: 0.159
ACACACTC | inactive: 0.189
AACGCCTA | inactive: 0.0206
GACGCATA | inactive: -0.00306
ACCATTGG | inactive: -0.017
ACTCCCTC | inactive: -0.198
ACTGACGG | inactive: -0.187
AACTTGGC | inactive: -0.0399
AGCCTGAA | inactive: -0.098
ATGCTCGC | inactive: -0.0878
CTAACTAA | inactive: 0.029
AAATCCCC | inactive: -0.139

Sequence | PBM E-score
CCAGAGCG | inactive: -0.227
ACGTCTAC | inactive: 0.054
CCTGGACC | inactive: -0.0439
ATCGGAAC | inactive: 0.0456
ACCCCACG | inactive: -0.196
GCGCTAAC | inactive: -0.0781
CAGGCAAA | inactive: 0.0265
AAGTCGCC | inactive: -0.242
GTGGGCAA | inactive: -0.126
CTCAGAAG | inactive: -0.12
CATAACAA | inactive: 0.308
ACGGGTGG | inactive: -0.153
AGACCGCT | inactive: -0.133
CCACCTAA | inactive: -0.0859
ACTCCGAC | inactive: -0.0719
ATGCTAAC | ≥ 0.201
AGCTCTGG | inactive: -0.164
AAAATGTC | inactive: 0.217
CGCGCACA | inactive: -0.123
ATGGTTCC | inactive: 0.0108
CAATGGTG | inactive: -0.0165
CAACTTGC | inactive: -0.0807
CGACCGAG | inactive: -0.187
